Values marked as one replicate rest on one cluster of the flow cell; about a third of the high ones do not repeat.
These sequences were tested on ATP (assay: switch fluorescence ratio, 500 uM ATP over buffer (Cy3 cluster intensity, sum of 5 cycles each) (fold (ratio)); higher = stronger signal-on switching upon ATP binding; sequences stand for … in TCGTCGGCAGCGTCAGATGTGTATAAGAGACAGTTTTTTTTTTTTTTTTTTTTTTTTT…TC). Details: aptamer strand: ATP DNA aptamer (quencher-CACCTGGGGGAGTATTGCGGAGGAAGG + anchor), 100 nM annealed; ATP concentration: 500 uM; one replicate.
In short: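 Values give the fluorescence ratio for each switch-domain sequence, averaged from per-cluster ratios of summed target-cycle to summed buffer-cycle Cy3 intensity. The Cy3-labelled switching-strand clusters sat on a modified Illumina MiSeq flow-cell, were annealed to 100 nM quencher-labelled ATP aptamer, and were imaged in selection buffer, then after 15 min with 500 uM ATP at 22 °C. Five cycles ran with NaOH stripping and re-annealing between them, and clusters outside 100-1000 RFU were excluded.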
TGCAGGGGCA showed a switch fluorescence ratio of 1.03. TGCAGTAAAT showed a switch fluorescence ratio of 1.03. With TGCATAATAA the switch fluorescence ratio was 1.01. TGCATAGAGG was tested, and the switch fluorescence ratio was 1. In the case of TGCATAGGC, the switch fluorescence ratio is reported as 2.07. Work on TGCATATAGG yielded a switch fluorescence ratio of 1.01. TGCATATCGT was tested, and the switch fluorescence ratio was 1. TGCATCCGT gave a switch fluorescence ratio of 0.986. Work on TGCATCCTGA yielded a switch fluorescence ratio of 0.988. With TGCATCCTTA the switch fluorescence ratio was 0.946. For TGCCAACATC, the switch fluorescence ratio was 1.01. For TGCCAACTTT, the switch fluorescence ratio was 0.93. Work on TGCCACGCAG yielded a switch fluorescence ratio of 0.985. Work on TGCCAGCAAG yielded a switch fluorescence ratio of 1.06. TGCCAGCACG gave a switch fluorescence ratio of 1.01. Work on TGCCATCGGA yielded a switch fluorescence ratio of 0.987. TGCCATCTCC showed a switch fluorescence ratio of 1.18. For TGCCCAGGTG, the switch fluorescence ratio was 1.75. Work on TGCCCAGTTA yielded a switch fluorescence ratio of 1.01. TGCCCCGTTG showed a switch fluorescence ratio of 1. With TGCCCGAAGG the switch fluorescence ratio was 0.976. With TGCCGAAGCT the switch fluorescence ratio was 1.07. For TGCCGAAGTA, the switch fluorescence ratio was 1.01. For TGCCGATAAA, the switch fluorescence ratio was 1.01. For TGCCGATCTA, the switch fluorescence ratio was 0.988. TGCCGCGTCG was tested, and the switch fluorescence ratio was 1.05. TGCCGGATTG was tested, and the switch fluorescence ratio was 1.01. TGCCGGTCGT showed a switch fluorescence ratio of 1.03. With TGCCGTTAAC the switch fluorescence ratio was 1.01. Work on TGCCTATGTT yielded a switch fluorescence ratio of 0.98. TGCCTCAGGA gave a switch fluorescence ratio of 1.08. TGCCTCATCG showed a switch fluorescence ratio of 1.05. TGCCTCCACT gave a switch fluorescence ratio of 1.14. In the case of TGCCTCTTAT, the switch fluorescence ratio is reported as 1.08. In the case of TGCCTGATAG, the switch fluorescence ratio is reported as 0.991. TGCCTTTATA gave a switch fluorescence ratio of 1.07. TGCGAAAACT was tested, and the switch fluorescence ratio was 1.04. TGCGAACAGG was tested, and the switch fluorescence ratio was 1.07. Sequence TGCGAAGAGT has a switch fluorescence ratio of 0.971. TGCGACGTCC gave a switch fluorescence ratio of 0.986. With TGCGAGAGTC the switch fluorescence ratio was 0.963. Work on TGCGAGGCAG yielded a switch fluorescence ratio of 1.15. In the case of TGCGATAGC, the switch fluorescence ratio is reported as 0.984. TGCGATTGAA showed a switch fluorescence ratio of 1.01. In the case of TGCGCACCAT, the switch fluorescence ratio is reported as 1.03. TGCGCCCCGG was tested, and the switch fluorescence ratio was 1.01. Sequence TGCGCCGATG has a switch fluorescence ratio of 1.04. For TGCGCCGGTG, the switch fluorescence ratio was 1.01. TGCGCGTTTT showed a switch fluorescence ratio of 1.03. Sequence TGCGCTAGAT has a switch fluorescence ratio of 1.07. TGCGCTGATG showed a switch fluorescence ratio of 0.999. Work on TGCGGAGAGT yielded a switch fluorescence ratio of 1.04. TGCGGAGTAG was tested, and the switch fluorescence ratio was 1. TGCGGCGTTT was tested, and the switch fluorescence ratio was 0.982. Sequence TGCGGCTAGT has a switch fluorescence ratio of 0.988. For TGCGGGTTCT, the switch fluorescence ratio was 1.02. For TGCGGTACTA, the switch fluorescence ratio was 1.15. In the case of TGCGGTATT, the switch fluorescence ratio is reported as 1.01. TGCGGTCGTA gave a switch fluorescence ratio of 0.961. TGCGTAGTG gave a switch fluorescence ratio of 0.973. TGCGTATCCT was tested, and the switch fluorescence ratio was 0.99. Sequence TGCGTCCAAT has a switch fluorescence ratio of 1.03. For TGCGTCGGCA, the switch fluorescence ratio was 1.05. TGCGTCGTCC was tested, and the switch fluorescence ratio was 0.94. For TGCGTCTTGC, the switch fluorescence ratio was 0.936. Sequence TGCGTTGAAG has a switch fluorescence ratio of 1.04. TGCTAAAAGG was tested, and the switch fluorescence ratio was 0.989. For TGCTAGTAT, the switch fluorescence ratio was 0.989. TGCTAGTCGA showed a switch fluorescence ratio of 1. In the case of TGCTATGCAT, the switch fluorescence ratio is reported as 1.09. Work on TGCTATTCAA yielded a switch fluorescence ratio of 0.998. TGCTATTTCG showed a switch fluorescence ratio of 1.02. In the case of TGCTCAGTAC, the switch fluorescence ratio is reported as 1.4. In the case of TGCTCCCGGG, the switch fluorescence ratio is reported as 1.13. TGCTCCGAGC was tested, and the switch fluorescence ratio was 1.31. TGCTCCTCAG gave a switch fluorescence ratio of 1.24. TGCTCGGGTG gave a switch fluorescence ratio of 1.33. Sequence TGCTGAACGA has a switch fluorescence ratio of 1.01. TGCTGACACG showed a switch fluorescence ratio of 1.04. Work on TGCTGGAT yielded a switch fluorescence ratio of 1.03. TGCTGGGACC was tested, and the switch fluorescence ratio was 1.01. For TGCTGGTACA, the switch fluorescence ratio was 1. TGCTGGTTCG gave a switch fluorescence ratio of 1.01. TGCTGGTTTC showed a switch fluorescence ratio of 0.974. Work on TGCTGTTTT yielded a switch fluorescence ratio of 0.969.
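Further: ATP exposure 15 min at 22 °C before imaging.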
